The campaign covered roughly 150,000 compounds. About 540 (0.36%) showed an effect of 50% or more. Some of the results follow.
system: Plasmodium falciparum; test: Primary screen in NF54 nanoGlo assay, in single point, at 2uM, 72h; a lower Z score goes with more inhibition; type: functional, Erythrocyte; details: timepoint 72 hour

| Compound | % Inhibition | Z score |
| --- | --- | --- |
| c1ccc(Cc2cn[nH]c2[C@H]2CCCNC2)cc1 | 4% | -0.49 |
| Cc1cccc(NC(=O)CN(C)CCC[C@H](C)O)c1C | -3% | 0.4 |
| O=C(NCCc1c[nH]cn1)Nc1ccnn1C[C@@H]1CC=CCC1 | 5% | -0.93 |
| CCC(C)NC(=O)CCNC(C)c1cc(F)c(F)c(F)c1 (stereo unspecified) | 1% | -0.11 |
| CCOC(=O)c1ccc(NS(=O)(=O)C[C@H](OC)C2CC2)c(O)c1 | -9% | 0.78 |
| O=C(NC1CCC(F)(F)CC1)C1CCC1 | -18% | 2.3 |
| Cc1cc(-c2c(-c3ccccc3)ncn2CCNc2ccccc2)[nH]n1 | 16% | -2.12 |
| CS(=O)(=O)NC1CC1C1CCCCC1 (stereo unspecified) | -6% | 0.84 |
| O=C(CCCc1ccccc1)N1CCC(F)(C(=O)N2CCOCC2)CC1 | -6% | 0.84 |
| Cc1ccccc1C(=O)N1[C@H](C(=O)NCc2cccnc2)COC12CCN(C(=O)c1ccccc1F)CC2 | -7% | 1.1 |
| COc1cc(C)ccc1-c1nc([C@H]2CCOC2)no1 | 3% | -0.38 |
| C#C[C@H](CO)NCc1ccc(Cl)s1 | 11% | -1.38 |
| Cc1ncc(C(=O)O)cc1NC(=O)CC(C)(C)C | 4% | -0.5 |
| CN(Cc1nc2ccccc2s1)C(=O)c1cc(S(=O)(=O)N2CCCCC2)ccc1N1CCCC1 | 0% | -0.02 |
| Cc1cnc(C2CCC2)n1C[C@H]1CCN(S(=O)(=O)c2cccc(F)c2)C1 | -9% | 1.23 |
| O=C(NCCn1ccnc1)Nc1ccc(Cl)cc1C(F)(F)F | -4% | 0.57 |
| Cc1nsc(C(=O)NCc2ccccc2Cl)n1 | -6% | 0.89 |
| c1cncc(-c2noc(CN3CCC(c4cc[nH]n4)CC3)n2)c1 | -14% | 1.53 |
| CC(=O)N1CCCN(C[C@@H]2OC[C@H](NC(=O)c3ccc(Cl)cc3)[C@H]2O)CC1 | 25% | -2.87 |
| CC(=O)Nc1ccc(S(=O)(=O)NCCn2c(-c3ccc(C)cc3)nc3ccccc32)cc1 | -1% | 0.11 |
| CN(C)c1cc2c(cc1NC(=O)NCC1=CCCCC1)n(C)c(=O)n2C | -7% | 0.93 |
| CCc1nc(C)c(CNC(=O)CCCn2cccn2)s1 | -4% | 0.9 |

| Compound | % Inhibition | Z score |
| --- | --- | --- |
| CCOCc1ccccc1CNC(=O)Nc1ccc2nc(C)nn2c1 | -5% | 0.77 |
| CC(C)(O)CN[C@@H](CCCNC(=O)OC(C)(C)C)c1ccccc1 | -7% | 0.95 |
| Cc1noc(C)c1S(=O)(=O)NC[C@H](O)c1csc2ccccc12 | -21% | 2.64 |
| CCc1cnc(CN(C)Cc2nnc(C)o2)s1 | 4% | -0.69 |
| CN(CC(=O)Nc1cccc(F)c1)C(=O)C[C@@H]1C=CCC1 | 12% | -1.67 |
| Cc1ccc(C)c(-n2nc(CC(C)C)nc2CN2C(=O)CNC2=O)c1 | 1% | -0.25 |
| Cc1cc(NC(=O)c2csc(-c3cccs3)n2)no1 | -3% | 0.37 |
| Cc1ccc(CN(Cc2ccc(C(O)(c3cccc(F)c3)c3cccc(F)c3)o2)C[C@H]2CCCO2)o1 | -7% | 1.01 |
| COc1ccc(C(=O)N(C)C2CCN(Cc3ncc(C)c(OC)c3C)CC2)nc1 | -1% | 0.06 |
| CCOC1CCN(Cc2cnc3c(S(C)(=O)=O)cnn3c2)CC1 | -14% | 2.04 |
| O=C(OC1CCCC1)c1ccc(NC(=O)[C@@H]2COCCO2)cc1 | -8% | 1.52 |
| Cc1cc(-c2nnn(CC3(CS(C)(=O)=O)CCC3)n2)ccc1F | -1% | 0.22 |
| CC[C@H](NC(=O)N1CCNC(=O)CC1)c1ccccc1OC(F)F | -14% | 1.69 |
| CCN(c1ccc(C(F)(F)F)c(C#N)n1)[C@H]1CCOC1 | -8% | 0.86 |
| COCCN(c1nc2ccccc2s1)S(=O)(=O)c1cc(C(C)=O)ccc1Cl | -8% | 1 |
| O=C(c1ccc(CS(=O)(=O)c2ccccc2)o1)N1CCN(c2ccccc2Cl)CC1 | -6% | 0.55 |
| C[C@H](Oc1cccc(Cl)c1Cl)C(=O)Nc1cnc(-c2cccc(O)c2)nc1 | 11% | -1.38 |
| COc1nc(-c2ccccc2Cl)nc2c1sc(=S)n2-c1ccccc1 | -6% | 0.84 |
| COc1cccc(NC(=O)Nc2cccc(CCc3nc4ccccc4n3C)c2)c1 | -11% | 1.73 |
| COC(=O)[C@H]1CCc2nnc(Cc3ccccc3C)n2CC1 | 10% | -1.73 |
| CC(=O)c1ccc(S(=O)(=O)N2CCN(Cc3noc4ccccc34)CC2)cc1 | -5% | 0.6 |

Reference: ChEMBL document CHEMBL4888484, “Replenishing the malaria drug discovery pipeline: Screening and hit evaluation of the MMV Hit Generation Library 1 (HGL1) against asexual blood stage Plasmodium falciparum ,using a nano luciferase reporter read-out” (2022)
